In PubChem BioAssay AID504937 (National Center for Advancing Translational Sciences (NCATS), 2011):
The campaign covered roughly 340,000 compounds. About 20 (0.006%) were called active. The shares of active, inactive and inconclusive entries below differ from those in the screen. Calls come from the whole dose curve; as a rule, active = well fitted inhibition curve with a large enough effect; inconclusive = small, poorly fitted or top-dose-only effect; inactive = no such curve, though single readings can be large or run the other way. A potency beside an inconclusive call is a rough fit, not a confirmed value.

These compounds were tested against Sphingomyelin phosphodiesterase (Homo sapiens) (UniProt P17405) (assay: Inhibitors of Secretory Acid Sphingomyelinase (S-ASM): qHTS). Conditions: placental ASM, HMU-PC fluorogenic substrate (series up to 57.5 µM), 60 min.
Chain of UniProt P17405 (P17405 whole entry, looked up): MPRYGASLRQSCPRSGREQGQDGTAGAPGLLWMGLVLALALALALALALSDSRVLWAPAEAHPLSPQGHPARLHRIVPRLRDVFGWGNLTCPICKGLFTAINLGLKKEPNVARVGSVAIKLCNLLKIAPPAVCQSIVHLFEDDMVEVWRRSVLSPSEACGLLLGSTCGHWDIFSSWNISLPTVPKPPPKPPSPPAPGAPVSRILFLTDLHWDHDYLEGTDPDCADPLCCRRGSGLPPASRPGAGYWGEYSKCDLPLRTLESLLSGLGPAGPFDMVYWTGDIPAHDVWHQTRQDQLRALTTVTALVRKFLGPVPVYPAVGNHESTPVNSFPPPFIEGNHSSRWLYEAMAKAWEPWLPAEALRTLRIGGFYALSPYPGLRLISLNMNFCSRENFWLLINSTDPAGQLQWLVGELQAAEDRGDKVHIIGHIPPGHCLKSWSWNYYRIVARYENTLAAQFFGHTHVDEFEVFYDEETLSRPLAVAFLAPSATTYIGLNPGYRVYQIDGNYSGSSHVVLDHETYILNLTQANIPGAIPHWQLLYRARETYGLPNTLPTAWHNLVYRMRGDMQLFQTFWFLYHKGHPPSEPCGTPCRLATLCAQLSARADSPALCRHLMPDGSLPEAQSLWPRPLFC
Summary of the method: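 Fluorogenic HMU-PC substrate (9 uM final) is turned over by placental ASM in 60 min at 37 C after a 10 min compound preincubation. Reaction ended by alkaline stop (pH 10), with fluorescence read at 386/447 nm.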
Potency is the fitted concentration of half-maximal effect; tags give direction and shape of the fitted curve.

SMILES	Potency
Cc1ccc(NC(=O)Nc2ccc3c(c2)N(C)C(=O)CS3)cc1C	inconclusive: 891 µM [inhibitor, partial curve, poor fit]
O=C(CCN1C(=O)/C(=C\c2ccc(F)cc2)SC1=S)Nc1ccccc1	inconclusive: 79.4 µM [inhibitor, single point]
CN(CC(=O)Nc1cccc(F)c1)C(=O)c1ccc(OCc2cn3ccccc3n2)cc1	inactive
Cc1nc2nc(C)n(CCN3CCOCC3)c(=O)c2c(-c2cccc([N+](=O)[O-])c2)c1C(=O)CCCCCCCCCCN1CCC(c2ccccc2)(c2ccccc2)CC1	inconclusive: 79.4 µM [inhibitor, single point]
COC(=O)c1ccc2c(c1)NC(=O)C(N1CCOCC1)S2 (centres undefined)	inactive
CC1(C)Cc2c(sc(NC(=O)c3ccc(C(=O)c4ccccc4)cc3)c2C(N)=O)C(C)(C)N1	inconclusive: 89.1 µM [inhibitor, single point]
CCc1ccc(-n2cc(-c3ccc([N+](=O)[O-])cc3)[nH]c2=S)cc1	inactive
COc1ccc2cc(C(=O)N3CCN(c4ccccc4OC)CC3)[nH]c2c1	inconclusive: 562 µM [inhibitor, partial curve, poor fit]
COc1ccc(NC(=O)c2cc(C)on2)cc1OC	inactive
O=C(Nc1cccnc1)c1ccc(COc2ccccc2Br)o1	inactive
Cc1ccc2cc(C#N)c(N3CCN(C(=O)c4ccccc4)CC3)nc2c1	inactive
O=C(O)c1cc(O)c2c(c1)[C@H]([C@H]1c3cc(C(=O)O)cc(O)c3C(=O)c3c(O[C@@H]4O[C@H](CO)[C@@H](O)[C@H](O)[C@H]4O)cccc31)c1cccc(OC3O[C@H](CO)[C@@H](O)[C@H](O)[C@H]3O)c1C2=O (some centres undefined)	inconclusive: 50.1 µM [inhibitor, partial curve]
Cc1ccnc(NC(=O)CCC(=O)N(CC(=O)NC(C)(C)C)c2ccc(F)c(Cl)c2)c1	inactive
CCNc1ccc(Br)cc(C(=O)/C=C/c2c(Cl)cccc2Cl)c1=O	inconclusive: 251 µM [inhibitor, partial curve, poor fit]
Cc1ccnc2ccc(-c3nc4ccccc4o3)cc12	inactive
O=C(CN1CCN(C(=O)CNC(=O)c2ccc3c(c2)OCO3)CC1)Nc1ccc(F)cc1	inactive
N#C/C(=N\Nc1cccc([N+](=O)[O-])c1)C(=O)c1ccc(Br)cc1	inconclusive: 200 µM [inhibitor, partial curve, poor fit]
CCC(C)(C)c1ccc(OCCCC[n+]2cccc(C)c2C)c(C(C)(C)CC)c1	inconclusive: 112 µM [inhibitor, partial curve, poor fit]
COc1ccc2c(c1)OC[C@H]1[C@H]2N2C(=O)c3cc(OC)ccc3NC(=O)[C@@]2(C)[C@H]1c1ccccc1	inconclusive: 158 µM [inhibitor, partial curve, poor fit]
Cc1ccc(C2C3=C(CCCC3=O)N=C3c4ccccc4C(=O)C32)cc1 (centres undefined)	inactive

SMILES	Potency
CC(C)C1=CC(=Nc2ccc(S(N)(=O)=O)cc2)C=C(C(C)C)C1=O	inactive
N#Cc1c(NC(=O)C2CC(c3ccccc3O)=NO2)sc2c1CCC2 (centres undefined)	inconclusive: 112 µM [inhibitor, single point]
CCOC(=O)c1c2c(n(-c3ccc(OC)cc3)c1C)C(=O)C(=O)c1ccccc1-2	inconclusive: 70.8 µM [inhibitor, partial curve, poor fit]
CC(=O)n1cc([C@H]2C=C(C(=O)Nc3ccccc3)O[C@@H](OCCCCO)C2)c2ccccc21	inconclusive: 112 µM [inhibitor, partial curve, poor fit]
Cc1cccc(NC(=O)Cn2nc(-c3cccs3)ccc2=O)c1C	inactive
CCOc1ccc(NS(=O)(=O)c2cc(NC(=O)C3CC3)ccc2C)cc1Br	inconclusive: 89.1 µM [inhibitor, single point]
Cc1cc(OC(C)C(=O)N2CCN(c3ccc(F)cc3)CC2)c2c(C)c(C)c(=O)oc2c1 (centres undefined)	inconclusive: 316 µM [inhibitor, partial curve, poor fit]
O=C(NNC(=S)Nc1ccc(Br)cc1)c1ccc(N2CCOCC2)c([N+](=O)[O-])c1	inconclusive: 112 µM [inhibitor, partial curve, poor fit]
O=C(Nc1ccccc1C(=O)O)c1cccc(NC(=O)c2ccccc2Br)c1	inactive
Cc1csc2c(N3CCN(C(=O)Nc4ccc(Cl)c(Cl)c4)CC3)ncnc12	inconclusive: 70.8 µM [inhibitor, single point]
Brc1ccc(C2=Nn3c(nnc3-c3n[nH]c4c3CCC4)SC2)cc1	inconclusive: 100 µM [inhibitor, partial curve]
Cc1ccc(Oc2cc(NC(=O)CCCn3nc(C)c([N+](=O)[O-])c3C)cc([N+](=O)[O-])c2)cc1	inconclusive: 112 µM [inhibitor, partial curve, poor fit]
O=C(COc1ccccc1)NC(=S)N1CCc2ccccc21	inactive
CNC(=S)N/N=C/c1cn(CCOc2ccc(OC)cc2)c2ccccc12	inconclusive: 50.1 µM [inhibitor, partial curve]
OC(COCC(F)(F)C(F)(F)C(F)(F)C(F)F)Cn1c2ccc(Cl)cc2c2cc(Cl)ccc21 (centres undefined)	inconclusive: 200 µM [inhibitor, partial curve, poor fit]
CC(C)c1c(C(=O)N/N=C/c2ccc(OCc3ccccc3)cc2)nnn1-c1nonc1N	inconclusive: 794 µM [inhibitor, partial curve, poor fit]
Cc1ccc(-c2csc(NC(=O)CSc3nc4ccccc4[nH]3)n2)cc1	inconclusive: 89.1 µM [inhibitor, partial curve, poor fit]
Cc1cccc(NC(=S)/N=C(\N)Nc2nc(C)c3ccc(C)cc3n2)c1	inconclusive: 112 µM [inhibitor, partial curve, poor fit]
O=C(Nc1nnc(SCc2ccc(F)cc2)s1)C1CC(=O)N(c2ccc3c(c2)OCCO3)C1 (centres undefined)	inconclusive: 1260 µM [inhibitor, partial curve, poor fit]
